PMC4336329 (PLoS ONE, 2015)
Out of some 310,000 compounds screened, about 2,200 (0.71%) showed an effect of 50% or more. The effect is printed as a negative number. Some of the results follow.

target: human ether-à-go-go-related gene (hERG) potassium channel (human, UniProt Q12809); assay: primary screen, population patch clamp on CHO cells stably expressing hERG
Sequence (Q12809 whole entry, looked up): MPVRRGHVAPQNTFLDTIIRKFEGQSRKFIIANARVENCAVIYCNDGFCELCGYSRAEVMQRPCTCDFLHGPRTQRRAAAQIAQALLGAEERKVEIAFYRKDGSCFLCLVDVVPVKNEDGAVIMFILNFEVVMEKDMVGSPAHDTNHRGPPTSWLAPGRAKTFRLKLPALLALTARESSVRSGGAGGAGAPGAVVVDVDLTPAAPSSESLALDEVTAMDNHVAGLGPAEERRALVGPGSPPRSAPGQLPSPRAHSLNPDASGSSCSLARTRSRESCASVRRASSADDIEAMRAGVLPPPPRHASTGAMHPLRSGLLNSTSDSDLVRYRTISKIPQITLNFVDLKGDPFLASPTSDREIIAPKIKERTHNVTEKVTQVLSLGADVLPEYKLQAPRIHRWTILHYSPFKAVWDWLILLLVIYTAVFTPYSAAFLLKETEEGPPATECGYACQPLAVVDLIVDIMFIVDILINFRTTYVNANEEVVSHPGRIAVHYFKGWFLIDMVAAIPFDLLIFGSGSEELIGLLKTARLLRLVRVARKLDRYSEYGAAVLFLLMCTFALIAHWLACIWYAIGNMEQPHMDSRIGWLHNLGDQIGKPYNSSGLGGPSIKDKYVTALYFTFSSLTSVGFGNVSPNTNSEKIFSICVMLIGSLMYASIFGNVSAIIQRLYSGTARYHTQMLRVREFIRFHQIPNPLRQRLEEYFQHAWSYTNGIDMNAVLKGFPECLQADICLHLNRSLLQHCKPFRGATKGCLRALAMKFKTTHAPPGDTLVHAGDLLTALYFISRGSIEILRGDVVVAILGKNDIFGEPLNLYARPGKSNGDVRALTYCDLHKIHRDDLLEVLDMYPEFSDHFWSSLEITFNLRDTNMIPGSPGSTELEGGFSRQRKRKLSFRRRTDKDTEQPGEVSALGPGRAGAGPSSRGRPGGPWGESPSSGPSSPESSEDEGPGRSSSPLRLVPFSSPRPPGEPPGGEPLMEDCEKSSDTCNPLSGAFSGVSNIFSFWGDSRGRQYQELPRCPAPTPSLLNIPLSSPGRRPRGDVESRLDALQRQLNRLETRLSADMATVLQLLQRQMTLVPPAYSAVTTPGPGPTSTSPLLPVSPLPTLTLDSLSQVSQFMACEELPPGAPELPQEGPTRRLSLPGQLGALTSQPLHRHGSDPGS

Compared with `Cn1c(=O)n(Cc2ccccc2)c(=O)c2c1nc1n2CCCN1C1CCCCC1`, `COc1ccc(C(CNC(=O)C2CC(=O)N(Cc3ccccc3)C2)N2CCOCC2)cc1` (centres unmarked) is lower in “hERG current change (%, negative = inhibition) at 1uM” value: -0.59% for the first, -1.54% for the second.

Compared with `Cc1ccc(S(=O)(=O)N2CCCCC2)cc1C(=O)NCCc1ccccc1`, `CCN(CC(=O)NCc1cccs1)C(=O)c1cc(S(=O)(=O)N2CCCCC2)ccc1Cl` is lower in “hERG current change (%, negative = inhibition) at 1uM” value: 9.39% for the first, -3.26% for the second.

Compared with `Cc1ccc(NC(=O)c2ccc(=O)[nH]c2)cc1S(=O)(=O)N1CCCCC1`, `COc1ccc(C(=O)Nc2nc3ccccc3[nH]2)cc1S(=O)(=O)N1CCCC1` is higher in “hERG current change (%, negative = inhibition) at 1uM” value: 5.65% for the first, 6.81% for the second.

Compared with `CCOC(=O)c1cc2c(ccn2-c2ccc(F)cc2)n1CC(=O)N(CC)CC`, `O=C(Cn1cnc2c(cnn2-c2ccc(F)cc2)c1=O)OCc1ccccc1` is higher in “hERG current change (%, negative = inhibition) at 1uM” value: -0.733% for the first, 9.47% for the second.

First: COc1ccc(OCC(=O)Nc2ccncc2)cc1
Second: COc1ccc(C(=O)Nc2nc3ccccc3[nH]2)cc1
The “hERG current change (%, negative = inhibition) at 1uM” value of the first is lower: 8.47% for the first, 20.6% for the second.

First: CN(CC(=O)Nc1cccc(Cl)c1)S(=O)(=O)c1ccc2[nH]c(=O)oc2c1
Second: COC(=O)c1cc2sc(Cl)cc2n1CC(=O)Nc1cccc(SC)c1
The “hERG current change (%, negative = inhibition) at 1uM” value of the first is higher: 9.95% for the first, 6.79% for the second.

Compared with `OC(c1ccccc1)c1nc2ccccc2s1` (centres unmarked), `O=C(COc1cccc2ccccc12)N1CCN(c2ccccn2)CC1` is lower in “hERG current change (%, negative = inhibition) at 1uM” value: 1.13% for the first, -9.04% for the second.

Compared with `C=C(C)c1sc(-c2ccc(Cl)cc2)nc1C`, `Cc1ccc(C(=O)CCNc2ccc(F)c(Cl)c2)o1` is lower in “hERG current change (%, negative = inhibition) at 1uM” value: 18.2% for the first, -1.26% for the second.

Compared with `COc1ccc(-c2cc(C(=O)N/N=C/c3cccnc3)c3cc(C)cc(C)c3n2)cc1`, `Cc1c(C(=O)N/N=C/c2cccnc2)sc(=S)n1C` is lower in “hERG current change (%, negative = inhibition) at 1uM” value: 12.6% for the first, -1.96% for the second.

Going from `O=C(COc1ccccc1Cl)Nc1ccc(C(=O)c2ccc(C(=O)O)cc2)cc1` to `Cc1ccc(NC(=O)COC(=O)C2(c3ccc(Cl)cc3)CCCC2)cc1`, the “hERG current change (%, negative = inhibition) at 1uM” value rises from 17.7% to 24.7%.

Going from `O=S(=O)(c1ccc(OCC(O)CN2CCN(c3ccccc3Cl)CC2)cc1)N1CCOCC1` (centres unmarked) to `O=C(Nc1ccc(S(=O)(=O)N2CCOCC2)cc1)C1CCCCC1`, the “hERG current change (%, negative = inhibition) at 1uM” value falls from 0.0986% to -3.69%.

Compared with `COC(=O)c1ccc(C)c(NC(=O)Cc2ccc([N+](=O)[O-])cc2)c1`, `COc1ccc(C)cc1NC(=O)c1ccc2c(SCC(=O)O)c3c(nc2c1)CCCC3` is higher in “hERG current change (%, negative = inhibition) at 1uM” value: 9.39% for the first, 13.9% for the second.

Compared with `CCN1CCN(c2ccc(NC(=O)c3ccccc3F)cc2Cl)CC1`, `CCN1CCN(c2ncc(C(=O)Nc3c(F)cc(F)cc3Br)c3ccccc23)CC1` is lower in “hERG current change (%, negative = inhibition) at 1uM” value: -16.5% for the first, -17.7% for the second.

First: COc1ccc(C(C(O)C(=O)c2c[nH]c3ccccc23)N2CCN(c3ccc(OC)cc3)CC2)cc1 (centres unmarked)
Second: CC(=O)c1ccc(N2CCN(C(=O)c3n[nH]c4ccccc34)CC2)cc1
The “hERG current change (%, negative = inhibition) at 1uM” value of the first is higher: 2.28% for the first, -12.3% for the second.

Going from `Cc1cc2nnc(SCC(=O)N3CCCCCC3)n2c(N)n1` to `COc1ccc(-c2ccnc(SCC(=O)N3CCOCC3)n2)cc1`, the “hERG current change (%, negative = inhibition) at 1uM” value rises from 5.65% to 8.48%.

Compared with `CC(C)CC(=O)N1CCN(Cc2cccc(Cl)c2)CC1`, `CC(C)Oc1cccc(C(=O)C2CCCN(C(=O)c3ccoc3)C2)c1` (centres unmarked) is lower in “hERG current change (%, negative = inhibition) at 1uM” value: 10.6% for the first, 5.95% for the second.

Compared with `CC(C)(C)C(=O)Cn1ncc(N2CCCC2)c(Br)c1=O`, `CC(C)(CNC(=O)c1cc2c(s1)CCCC2)N1CCOCC1` is lower in “hERG current change (%, negative = inhibition) at 1uM” value: 7.65% for the first, -2.05% for the second.

Compared with `CCOC(=O)c1c(C)c(C(=O)NCCCOC)c(C)n1C`, `COc1ccc(CCC(=O)OCC(=O)c2c(N)n(CC(C)C)c(=O)n(C)c2=O)cc1` is lower in “hERG current change (%, negative = inhibition) at 1uM” value: 6.53% for the first, -4.89% for the second.

First: O=C(NCc1ccccc1)c1onc(CS(=O)(=O)c2ccc(Cl)cc2)c1C(=O)NCc1ccccc1
Second: NS(=O)(=O)c1ccc(CCNC(=O)COC(=O)CC(c2ccccc2)c2ccccc2)cc1
The “hERG current change (%, negative = inhibition) at 1uM” value of the first is higher: 8.43% for the first, -1.77% for the second.

Compared with `Cc1nc(=O)c(-c2ccccc2)c(C)n1-c1cccc(/C=C/C(=O)O)c1`, `COc1ccc(C(=O)O/N=C(\C)c2ccccc2)cc1` is lower in “hERG current change (%, negative = inhibition) at 1uM” value: 16.2% for the first, 7.2% for the second.

Compared with `CCCCN1CC[C@H]2C=CC[C@@H](C(=O)N3CCN(c4ccccc4)CC3)[C@H]2C1=O`, `Cc1cc(C)n(-c2nnc(N3CCN(c4ccccc4)CC3)nn2)n1` is lower in “hERG current change (%, negative = inhibition) at 1uM” value: 16.5% for the first, 4.59% for the second.

Compared with `CC12CN(NC(=O)c3ccccc3F)C3(C#N)CC1CCC23C` (centres unmarked), `CC(Cc1ccccc1)NC(=O)C1CCCNC1=O` (centres unmarked) is higher in “hERG current change (%, negative = inhibition) at 1uM” value: 1.67% for the first, 10.4% for the second.

First: CCOc1ccc(/C=C(\C#N)C(=O)Nc2cccnc2)cc1
Second: CC(C)(C)c1ccc(C(=O)NC(=S)NCc2cccnc2)cc1
The “hERG current change (%, negative = inhibition) at 1uM” value of the first is lower: -0.124% for the first, 12% for the second.

Compared with `CC1CC1C(=O)Nc1nc(-c2cccs2)c(-c2cccs2)s1` (centres unmarked), `COc1ccc(C(=O)N/N=C2\CCc3ccccc32)cc1OC` is higher in “hERG current change (%, negative = inhibition) at 1uM” value: 7.23% for the first, 8.38% for the second.

First: Nc1nc(/C=C/c2ccc(F)cc2)nc(-c2ccccc2O)n1
Second: COc1ccc(/C=C/C(=O)NC(=S)N2CCN(c3ccccc3OC)CC2)cc1
The “hERG current change (%, negative = inhibition) at 1uM” value of the first is higher: 12.5% for the first, 11.5% for the second.

First: Cc1nn(C)c(Cl)c1CN1CCC(CO)(CC2CCCCO2)CC1 (centres unmarked)
Second: CCC1CCCCN1C(=O)CCNS(=O)(=O)c1ccc2c(c1)oc(=O)n2C (centres unmarked)
The “hERG current change (%, negative = inhibition) at 1uM” value of the first is higher: 10.3% for the first, 2.86% for the second.

Compared with `COc1ccc(-c2cc(C(F)(F)F)c(C#N)c(SCC(=O)Nc3ccccc3C#N)n2)cc1`, `COc1cc2c(cc1NC(=O)c1cccnc1)oc1ccccc12` is higher in “hERG current change (%, negative = inhibition) at 1uM” value: 6.2% for the first, 8.74% for the second.

First: N=c1c(C(=O)NCC2CCCO2)cc2c(=O)n3ccccc3nc2n1Cc1ccccc1Cl (centres unmarked)
Second: COc1ccccc1OCCNC(=O)c1cc(=O)[nH]c2ccccc12
The “hERG current change (%, negative = inhibition) at 1uM” value of the first is lower: -46.8% for the first, 0.367% for the second.

First: CC1=C(C#N)C(C)C2=C(CC(C)(C)CC2=O)N1 (centres unmarked)
Second: CC(C)(C)c1[nH]nc2c1C(c1ccsc1)C(C#N)=C(N)O2 (centres unmarked)
The “hERG current change (%, negative = inhibition) at 1uM” value of the first is lower: 1.86% for the first, 16.8% for the second.

First: COc1cc(/C=N/NC(=O)c2cccc(S(=O)(=O)N3CCCCC3)c2)cc(Br)c1O
Second: O=S(=O)(Nc1ccc(S(=O)(=O)N2CCCC2)cc1)c1ccccc1Br
The “hERG current change (%, negative = inhibition) at 1uM” value of the first is lower: 5.94% for the first, 9.25% for the second.

First: COc1ccc(C2=C(SC)CC2=NC(C)(C)C)cc1
Second: CCOc1ccc(-c2noc(CCC(=O)O)n2)cc1
The “hERG current change (%, negative = inhibition) at 1uM” value of the first is higher: 5.34% for the first, 0.837% for the second.

Going from `CCCCC(=O)Nc1cccc(C(C)O)c1` (centres unmarked) to `CCOc1cccc(NC(=O)CSc2sc3c(O)cc(=O)[nH]c3c2C#N)c1`, the “hERG current change (%, negative = inhibition) at 1uM” value rises from 14.2% to 17.5%.

First: CN(C)CCNC(=O)Cn1ccc2cc(S(=O)(=O)N3CCCCCC3)ccc21
Second: Cc1ccc(CCNC(=O)C2CCCN(S(=O)(=O)c3c(C)noc3C)C2)cc1 (centres unmarked)
The “hERG current change (%, negative = inhibition) at 1uM” value of the first is lower: 7.01% for the first, 8.68% for the second.

Going from `Cc1cc(C)c(S(=O)(=O)c2ccccc2)c(Cl)n1` to `Cc1cc(C(C)(C)C)cc(C)c1S(=O)(=O)N1CC(=O)Nc2ccccc21`, the “hERG current change (%, negative = inhibition) at 1uM” value rises from 7.58% to 19.5%.

Going from `Cc1cccc(S(=O)(=O)Nc2ccc(-c3nc4ccc(C)cc4s3)cc2)c1` to `Cc1ccc(CC(=O)Nc2nnc(-c3ccc(F)cc3)o2)c(C)c1`, the “hERG current change (%, negative = inhibition) at 1uM” value falls from 14.8% to 7.33%.

Going from `NC(=O)c1cc(S(=O)(=O)NCCc2ccc(Cl)cc2)cs1` to `O=C(NCCc1ccc(Cl)cc1)C1(c2ccccc2)CC1`, the “hERG current change (%, negative = inhibition) at 1uM” value falls from 17% to 6.62%.

Going from `CC(C)(C)c1ccccc1OCCCCCn1ccnc1` to `NC(=O)C1CCN(C(=O)COc2cccc3ccccc23)CC1`, the “hERG current change (%, negative = inhibition) at 1uM” value falls from 2.81% to 2.49%.

Compared with `Cc1cc(C)c2cc(CN(CCN(C)C)C(=O)Nc3ccccc3Cl)c(=O)[nH]c2c1`, `CCn1cc(C(=O)N(C)c2ccc(OC)cc2)c2cc(OC)c(OC)cc2c1=O` is higher in “hERG current change (%, negative = inhibition) at 1uM” value: -7.07% for the first, 11.9% for the second.

Compared with `COc1cc(/C=N/NC(=O)CNC(=O)c2ccncc2)ccc1OC(C)=O`, `O=C(CC(=O)Nc1ccc(Cl)cc1)N/N=C\c1cccc(F)c1` is higher in “hERG current change (%, negative = inhibition) at 1uM” value: 2.71% for the first, 14.6% for the second.

First: O=C(NCCCN1CCCC1=O)c1ccc2c(c1)OCO2
Second: COc1ccc(OC)c(NC(=O)C2CC(=O)N(CCc3ccccc3)C2)c1 (centres unmarked)
The “hERG current change (%, negative = inhibition) at 1uM” value of the first is higher: 11.3% for the first, 3.44% for the second.

First: Cc1cc(Br)cc(C)c1NC(=S)NC(=O)CC(C)C
Second: Cc1ccc(NC(=O)COC(=O)c2ccnn2C)cc1
The “hERG current change (%, negative = inhibition) at 1uM” value of the first is lower: 9.22% for the first, 16.5% for the second.

First: Cc1ccc2nc(C(F)OC(F)(F)F)[nH]c2c1 (centres unmarked)
Second: O=C(c1cc(Cl)nc2ccccc12)N1CCN(S(=O)(=O)c2cccc(C(F)(F)F)c2)CC1
The “hERG current change (%, negative = inhibition) at 1uM” value of the first is lower: 8.11% for the first, 20.3% for the second.

Going from `O=C(O)CSc1c(O)c2ccccc2[nH]c1=O` to `O=C(Nc1nnc(SCc2c(Cl)cccc2Cl)s1)c1cccc([N+](=O)[O-])c1`, the “hERG current change (%, negative = inhibition) at 1uM” value rises from -1.64% to 14.6%.

Going from `O=C(Nc1ccccc1)N1CCCC(CNS(=O)(=O)Cc2ccccc2)C1` (centres unmarked) to `Cc1cc(Br)ccc1NC(=O)c1cnc(N2CCN(c3ccccn3)CC2)c2ccccc12`, the “hERG current change (%, negative = inhibition) at 1uM” value rises from -18.6% to 12.1%.

In the case of `NC(=O)c1nnsc1-c1ccc(-c2snnc2C(N)=O)cc1`, the “hERG current change (%, negative = inhibition) at 1uM” value is reported as 12.2%.
